Patent EP0656117B1 (ISTITUTO DI RICERCHE DI BIOLOGIA MOLECOLARE P. ANGELETTI …, dated 2000)

Biological target: T1, interleukin 6 receptor gp 80 (soluble Human Recombinant IL-6R) (human, UniProt P08887 20-355, limits assumed)
T1 sequence (looked up): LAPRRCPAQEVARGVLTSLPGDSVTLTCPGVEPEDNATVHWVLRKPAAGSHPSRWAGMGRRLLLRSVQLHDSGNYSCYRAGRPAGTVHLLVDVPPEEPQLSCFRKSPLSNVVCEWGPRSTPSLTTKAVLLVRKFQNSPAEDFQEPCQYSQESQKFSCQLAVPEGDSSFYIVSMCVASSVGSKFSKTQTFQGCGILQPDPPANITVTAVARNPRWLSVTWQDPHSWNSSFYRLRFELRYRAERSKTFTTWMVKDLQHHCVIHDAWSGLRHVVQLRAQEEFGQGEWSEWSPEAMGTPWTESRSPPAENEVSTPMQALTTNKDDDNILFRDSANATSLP
Experiment: cell-based or functional assay

- antagonism of wild type interleukin 6 activity in tests on human hepatoma cells: 50 fold molar excess
B1: IL-6 Tyr31Asp/Gly35Phe (ligand)
chain: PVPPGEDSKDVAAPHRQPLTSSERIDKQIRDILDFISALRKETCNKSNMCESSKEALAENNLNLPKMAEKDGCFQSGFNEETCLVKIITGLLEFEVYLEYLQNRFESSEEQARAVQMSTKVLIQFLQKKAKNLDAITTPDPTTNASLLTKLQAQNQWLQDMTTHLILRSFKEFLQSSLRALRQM
